Assay results as given in PubChem BioAssay AID2451 (National Center for Advancing Translational Sciences (NCATS), 2010).
Several values for one entry are separate records, joined by “and”; a condition that tells them apart may be missing. Equal values may be shown once. The campaign covered roughly 290,000 compounds. About 2,100 (0.72%) were called active. This list was built around the results that the source calls inconclusive (neither active nor inactive); the mix of calls is not that of the screen. Calls follow the shape of the dose curve; as a rule, active = well fitted inhibition curve with a large enough effect; inconclusive = small, poorly fitted or top-dose-only effect, or effect the other way; inactive = flat fitted curve, though single readings scatter. A potency beside an inconclusive call is a rough fit, not a confirmed value.

target: Fructose-bisphosphate aldolase (Giardia intestinalis (strain ATCC 50803 / WB clone C6)) (UniProt A8B2U2); test: qHTS Assay for Inhibitors of Fructose-1,6-bisphosphate Aldolase from Giardia Lamblia; settings: purified Giardia FBPA; activity, negative = inhibition: at 59.6 µM (top of the series) unless noted; also: nearly all actives have a fitted effect of over 55% in size
UniProt A8B2U2, sequence (A8B2U2 whole entry, looked up): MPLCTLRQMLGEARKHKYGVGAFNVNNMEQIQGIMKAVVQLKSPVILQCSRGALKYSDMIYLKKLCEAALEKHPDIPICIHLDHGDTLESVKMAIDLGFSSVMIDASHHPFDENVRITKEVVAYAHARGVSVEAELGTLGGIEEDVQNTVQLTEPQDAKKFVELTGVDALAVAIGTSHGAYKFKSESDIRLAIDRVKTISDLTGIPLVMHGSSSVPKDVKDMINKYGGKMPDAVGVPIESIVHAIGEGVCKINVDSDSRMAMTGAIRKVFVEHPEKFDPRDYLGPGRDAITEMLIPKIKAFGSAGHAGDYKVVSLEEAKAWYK
In short: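 Giardia FBPA (40 nM reagent) was preincubated 10 min at RT with compound (up to 57.5 uM final), then substrate plus GAPDH/TPI/NAD/arsenate coupling system with diaphorase/resazurin was added; resorufin fluorescence (525/598 nm) was read after 20 min.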
% is scaled to controls: 0 for no effect and ±100 for the full control effect; potency is read from the fitted curve at half-maximal effect; tags tell the direction and shape of the fitted curve.

Q: How did the Potency turn out when COc1ccc(C2=CC(=O)C=CC2=O)cc1 was run?
A: active: 15.8 µM

Q: How did the Potency turn out when Cc1cc2cc(CNC(=O)c3ccco3)ccc2n1C was run?
A: inconclusive: 17.7 µM [inhibitor, single point]

Q: Which Potency does the source give for C=C1CCC[C@]2(C)C[C@H]3OC(=O)C(CNCCN(CC)CC)[C@H]3CC12 (stereo partly specified) here?
A: active: 15.8 µM

Q: O=[N+]([O-])c1cc2c(cc1CNCCc1ccc3c(c1)OCO3)OCO2 was tested. Which Potency did it give?
A: inconclusive: 7.06 µM [inhibitor, partial curve]

Q: How did the “activity, negative = inhibition” value turn out when O=C(COC(=O)c1ccccc1Br)NCCc1ccc(F)cc1 was run?
A: inactive: 1.27%

Q: With Nc1cc2nn(-c3ccccc3)nc2cc1Cl as the molecule, how does the Potency read?
A: inconclusive: 1.99 µM [inhibitor, full curve, poor fit]

Q: For CCN(CCO)c1ccc(NC(=S)Nc2cccc(S(=O)(=O)N(C)C)c2)cc1, which Potency is on record?
A: active: 7.92 µM

Q: COc1cccc2c1C(CO)N1C(C#N)C3CC(C(=O)O)C(C1C2)N3C (stereo unspecified) was tested. Which Potency did it give?
A: inconclusive: 1.26 µM [inhibitor, partial curve]

Q: Which Potency does the source give for CCOC(=O)c1c(C)[nH]c(C2=NNC(=Nc3ccccc3)SC2)c1C here?
A: inconclusive: 14.1 µM [inhibitor, partial curve]

Q: For N#Cc1c(NC(=O)CN2CCCCC2)sc2c1CCC2, which Potency is on record?
A: inconclusive: 25.1 µM [inhibitor, single point]

Q: For CC(C)c1ccc(OCc2ccc(C(=O)O)o2)cc1, which Potency is on record?
A: inconclusive: 15.8 µM [activator, partial curve]

Q: With Cc1ccc2nc(-c3cccc(S(=O)(=O)N(C)C)c3)cn2c1 as the molecule, how does the Potency read?
A: inconclusive: 44.6 µM [inhibitor, single point]

Q: With COC(=S)N/C(=N\S(=O)(=O)c1ccc(Cl)cc1)c1ccccc1 as the molecule, how does the Potency read?
A: inconclusive: 25.1 µM [inhibitor, partial curve]

Q: How did the “activity, negative = inhibition” value turn out when COc1cccc(-c2nnn(CCC(=O)O)n2)c1 was run?
A: inactive: 11.7%

Q: Which “activity, negative = inhibition” value does the source give for Cc1ccccc1CNCCCSc1ncccn1 here?
A: inactive: -20.8%

Q: With COc1ccc([N+](=O)[O-])cc1/C=N/NC(=O)CNC(=O)c1cccc(F)c1 as the molecule, how does the Potency read?
A: inconclusive: 15.8 µM [inhibitor, single point]

Q: How did the Potency turn out when CCC1CCC(N2CCN(c3ccccc3F)CC2)CC1 (stereo unspecified) was run?
A: inconclusive: 12.6 µM [inhibitor, partial curve]

Q: CCOc1cc(CNCc2ccc3c(c2)OCO3)ccc1OC was tested. Which Potency did it give?
A: inconclusive: 25.1 µM [inhibitor, single point]

Q: COC(=O)c1ccc(NC(=O)c2ccccc2)o1 was tested. Which “activity, negative = inhibition” value did it give?
A: inactive: -3.13%

Q: Which “activity, negative = inhibition” value does the source give for COc1ccsc1NC(=O)OCc1ccc(Cl)cc1 here?
A: inactive: 2.71%

Q: Which Potency does the source give for COc1cc(C(=O)O)nc2ccc([N+](=O)[O-])cc12 here?
A: inconclusive: 17.7 µM [inhibitor, partial curve]

Q: CC(=O)Oc1ccc(OC(C)=O)c(SCCCCCN2CCOCC2)c1 was tested. Which Potency did it give?
A: inconclusive: 15.8 µM [inhibitor, single point]

Q: With COc1cc(/C=N/Nc2nn3cnnc3c3ccccc23)ccc1O as the molecule, how does the Potency read?
A: inconclusive: 22.3 µM [inhibitor, single point]

Q: Which Potency does the source give for O=C(CSCc1ccc([N+](=O)[O-])cc1)N/N=C/c1cccnc1 here?
A: inconclusive: 17.7 µM [inhibitor, partial curve]

Q: How did the Potency turn out when NC(=S)N/N=C1\CC(n2nnnc2-c2ccccc2)C2COC1O2 (stereo unspecified) was run?
A: inconclusive: 14.1 µM [inhibitor, partial curve]

Q: How did the Potency turn out when Cc1ccc(C(=O)NC(=S)NNC(=O)c2ccc([N+](=O)[O-])cc2)cc1 was run?
A: inconclusive: 22.4 µM [activator, single point]

Q: With COc1cccc(OCC(=O)Nc2c3c(nn2-c2ccccc2)CS(=O)(=O)C3)c1 as the molecule, how does the Potency read?
A: inconclusive: 39.8 µM [inhibitor, partial curve]

Q: With Oc1c(Cl)cc(CN2CCCCC2)c2cccnc12 as the molecule, how does the Potency read?
A: inconclusive: 17.8 µM [inhibitor, single point]

Q: How did the “activity, negative = inhibition” value turn out when COc1cccc2c(=O)n(CC(=O)Nc3ccccc3F)ccc12 was run?
A: inactive: 5.57%

Q: For CCCC(=O)Nc1ccc(S(=O)(=O)Nc2cc(OC)ncn2)cc1, which “activity, negative = inhibition” value is on record?
A: inactive: -25.7%

Q: Which Potency does the source give for COc1ccc(Br)cc1CN1CCN(C(=O)c2ccc(F)cc2)CC1 here?
A: active: 15.8 µM

Q: Cc1ccccc1Cn1nnc(-c2ccc(C(=O)O)cc2)n1 was tested. Which Potency did it give?
A: inconclusive: 17.7 µM [activator, partial curve]

Q: Which Potency does the source give for O=C(/C=C/c1ccco1)Nc1nc(-c2ccccn2)cs1 here?
A: active: 17.7 µM

Q: For Oc1ccc(N2CCN(C(c3ccccn3)c3nnnn3C3CCCC3)CC2)cc1 (stereo unspecified), which Potency is on record?
A: inconclusive: 15.8 µM [inhibitor, partial curve]

Q: With Cc1ccc(C(C)(C)NC(=O)C2CCC(=O)N(CC3CCCCC3)C2)cc1 (stereo unspecified) as the molecule, how does the “activity, negative = inhibition” value read?
A: inactive: 6.42%

Q: With Cc1cc2c(c(=O)o1)C(C1C=CCCC1)C(C#N)=C(N)O2 (stereo unspecified) as the molecule, how does the Potency read?
A: inconclusive: 22.3 µM [inhibitor, partial curve]

Q: Cc1[nH]n(-c2cccc3ccccc23)c(=O)c1/C=N/NC(=O)c1cccc([N+](=O)[O-])c1 was tested. Which Potency did it give?
A: inconclusive: 17.7 µM [activator, single point]

Q: Which Potency does the source give for CC(C)CC(=O)N1CCN(Cc2ccc(Cl)cc2)CC1 here?
A: active: 28.2 µM

Q: With O=C(CN1CCCCC1)Nc1ccc(N2CCCCCC2)cc1 as the molecule, how does the Potency read?
A: inconclusive: 19.9 µM [inhibitor, partial curve]

Q: Cc1ccc(CNC(=O)C2CCN(S(=O)(=O)c3ccc4nc5c(c(C(=O)O)c4c3)CC(C)CC5)CC2)cc1 (stereo unspecified) was tested. Which Potency did it give?
A: inconclusive: 31.6 µM [inhibitor, single point]

Q: Which “activity, negative = inhibition” value does the source give for Cc1ccc(-c2nc(N3CCN(C)CC3)c3ccccc3n2)cc1 here?
A: inactive: -2.42%

Q: For COc1ccc(N2CCN(C(=O)CSc3nnc(C)c(=O)[nH]3)CC2)cc1, which Potency is on record?
A: active: 12.6 µM

Q: For O=c1c2ccccc2nnn1CSc1nnnn1-c1ccc(O)cc1, which “activity, negative = inhibition” value is on record?
A: inactive: 0.54%

Q: COc1ccc2c(c1)CC/C(=C\Nc1ccc3c(c1)OCO3)C2=O was tested. Which Potency did it give?
A: active: 7.92 µM

Q: For O=c1c(O)c(Br)ccc2c(Br)c(O)c(O)c(O)c12, which Potency is on record?
A: active: 11.2 µM

Q: For CC(NC(=O)Nc1ccc(O)cc1)(C(F)(F)F)C(F)(F)F, which Potency is on record?
A: inconclusive: 19.9 µM [inhibitor, partial curve]

Q: How did the “activity, negative = inhibition” value turn out when CCCC(=O)Nc1nnc(SCC)s1 was run?
A: inactive: -1.3%

Q: Which “activity, negative = inhibition” value does the source give for N=C1C(c2nc3ccccc3s2)=C(O)CN1CCCO here?
A: inactive: 2.8%

Q: With COc1ccc(NC(=S)NNc2ccc([N+](=O)[O-])cc2S(=O)(=O)Nc2ccc(C)cc2C)cc1 as the molecule, how does the “activity, negative = inhibition” value read?
A: inactive: -5.34%

Q: For Cc1cc(NC(=O)CSc2ncccc2C(=O)O)no1, which “activity, negative = inhibition” value is on record?
A: inactive: 4.38%

Q: Which Potency does the source give for O=C(CNCC1CCCO1)Nc1ccccc1N1CCCCCC1 (stereo unspecified) here?
A: inconclusive: 19.9 µM [inhibitor, partial curve]

Q: With Cc1nc(N)sc1C(=O)NN as the molecule, how does the “activity, negative = inhibition” value read?
A: inactive: -14.9%

Q: How did the Potency turn out when CC(=O)Nc1ccc(S(=O)(=O)N2CCN(Cc3cccc([N+](=O)[O-])c3)CC2)cc1 was run?
A: active: 17.7 µM

Q: For COc1ccc(OC)c(S(=O)(=O)NNC(=S)Nc2ccc3c(c2)OCO3)c1, which Potency is on record?
A: active: 8.91 µM

Q: How did the Potency turn out when CCn1c(SC(=O)NC2CCCCC2)nnc1-c1cccs1 was run?
A: inconclusive: 15.8 µM [inhibitor, partial curve]

Q: CCc1c(C)nc2c(-c3ccccc3OC)c(C)[nH]n2c1=O was tested. Which Potency did it give?
A: inconclusive: 39.8 µM [inhibitor, single point]

Q: Which “activity, negative = inhibition” value does the source give for CCc1ccc(-n2cc(-c3ccc(F)cc3)[n+]3c2SCCC3)cc1 here?
A: inactive: 0.096%

Q: Which Potency does the source give for CSc1ccccc1NC(=O)CN(C)CC(=O)Nc1c(F)cccc1F here?
A: inconclusive: 14.1 µM [inhibitor, partial curve]

Q: With Cc1cc(C)c(OCCCNC2CCCC2)c(Br)c1 as the molecule, how does the Potency read?
A: inconclusive: 14.1 µM [inhibitor, partial curve]

Q: For N#CC1(Nc2cccc(Br)c2)C(=O)Nc2ccccc21 (stereo unspecified), which Potency is on record?
A: inconclusive: 15.8 µM [inhibitor, partial curve]

Q: For Cc1c2cc(O)c(=O)cc-2oc2cc(O)c(O)cc12, which Potency is on record?
A: active: 7.06 µM

Q: For NC(=O)N1c2ccccc2CC(=O)c2ccccc21, which Potency is on record?
A: inconclusive: 17.7 µM [inhibitor, single point] and inconclusive: 15.8 µM [inhibitor, single point]

Q: How did the “activity, negative = inhibition” value turn out when Cc1nn(CC(=O)Nc2ccc3c(c2)nc2n3CCN(C3CCCCC3)C2)c(=O)c2ccccc12 was run?
A: inactive: -21.2%

Q: O=C(O)c1cc(C(=O)O)cc(-c2ccc(/C=c3/sc4nc5ccccc5n4c3=O)o2)c1 was tested. Which Potency did it give?
A: inconclusive: 19.9 µM [inhibitor, partial curve]

Q: Which Potency does the source give for COc1ccc(N2Cc3ccccc3C2=NC(=O)c2ccc(C)cc2)cc1OC here?
A: inconclusive: 17.7 µM [inhibitor, partial curve]

Q: With Cc1cc(C=C2C(=O)c3ccccc3C2=O)c(C)n1-c1ccc(C(=O)O)cc1 as the molecule, how does the Potency read?
A: inconclusive: 19.9 µM [inhibitor, partial curve]

Q: How did the “activity, negative = inhibition” value turn out when O=C(Nc1ccc(F)cc1)Nc1cccnc1Cl was run?
A: inactive: 1.25%

Q: How did the Potency turn out when CN(C)CCCNC(=O)c1ccc2[nH]c3ccccc3c2c1 was run?
A: inconclusive: 7.06 µM [inhibitor, single point]

Q: For Oc1ccc(/C=N/n2c(COc3ccccc3)n[nH]c2=S)cc1O, which Potency is on record?
A: inconclusive: 11.2 µM [inhibitor, partial curve]

Q: CCOC(=O)CN1C(=O)CN(c2ccc(C)c(C)c2)C1=O was tested. Which “activity, negative = inhibition” value did it give?
A: inactive: -0.666%

Q: With c1ccc(NC(c2ccccc2)c2ccncc2)cc1 (stereo unspecified) as the molecule, how does the Potency read?
A: inconclusive: 17.8 µM [inhibitor, single point]

Q: With CCc1ccc(N2C(=O)CC(NNc3nc4ccccc4s3)C2=O)cc1 (stereo unspecified) as the molecule, how does the Potency read?
A: inconclusive: 14.1 µM [inhibitor, partial curve]

Q: O=C(O)c1n[nH]nc1-c1ccccc1 was tested. Which Potency did it give?
A: inconclusive: 14.1 µM [inhibitor, partial curve]

Q: Cc1cc(C)n2nc(C(=O)Nc3ccc4c(c3)OCO4)cc2n1 was tested. Which Potency did it give?
A: inconclusive: 15.8 µM [inhibitor, single point]

Q: With CC(C)c1ccc(C2NC(=S)NC3=C2C(=O)CC(C)(C)C3)cc1 (stereo unspecified) as the molecule, how does the “activity, negative = inhibition” value read?
A: inactive: 6.35%

Q: COCCNC(=O)c1c(N)n(CCC(C)C)c2nc3ccccc3nc12 was tested. Which Potency did it give?
A: inconclusive: 9.98 µM [inhibitor, partial curve]
